Test results as given in article PMC4336329 (PLoS ONE, 2015).
About 2,200 (0.71%) of roughly 310,000 compounds showed an effect of 50% or more. Effects have a minus sign here. The list shows a part of the results.

Molecular target: human ether-à-go-go-related gene (hERG) potassium channel (human, UniProt Q12809)
Experiment: primary screen, population patch clamp on CHO cells stably expressing hERG

human ether-à-go-go-related gene (hERG) potassium channel, sequence (Q12809 whole entry, looked up): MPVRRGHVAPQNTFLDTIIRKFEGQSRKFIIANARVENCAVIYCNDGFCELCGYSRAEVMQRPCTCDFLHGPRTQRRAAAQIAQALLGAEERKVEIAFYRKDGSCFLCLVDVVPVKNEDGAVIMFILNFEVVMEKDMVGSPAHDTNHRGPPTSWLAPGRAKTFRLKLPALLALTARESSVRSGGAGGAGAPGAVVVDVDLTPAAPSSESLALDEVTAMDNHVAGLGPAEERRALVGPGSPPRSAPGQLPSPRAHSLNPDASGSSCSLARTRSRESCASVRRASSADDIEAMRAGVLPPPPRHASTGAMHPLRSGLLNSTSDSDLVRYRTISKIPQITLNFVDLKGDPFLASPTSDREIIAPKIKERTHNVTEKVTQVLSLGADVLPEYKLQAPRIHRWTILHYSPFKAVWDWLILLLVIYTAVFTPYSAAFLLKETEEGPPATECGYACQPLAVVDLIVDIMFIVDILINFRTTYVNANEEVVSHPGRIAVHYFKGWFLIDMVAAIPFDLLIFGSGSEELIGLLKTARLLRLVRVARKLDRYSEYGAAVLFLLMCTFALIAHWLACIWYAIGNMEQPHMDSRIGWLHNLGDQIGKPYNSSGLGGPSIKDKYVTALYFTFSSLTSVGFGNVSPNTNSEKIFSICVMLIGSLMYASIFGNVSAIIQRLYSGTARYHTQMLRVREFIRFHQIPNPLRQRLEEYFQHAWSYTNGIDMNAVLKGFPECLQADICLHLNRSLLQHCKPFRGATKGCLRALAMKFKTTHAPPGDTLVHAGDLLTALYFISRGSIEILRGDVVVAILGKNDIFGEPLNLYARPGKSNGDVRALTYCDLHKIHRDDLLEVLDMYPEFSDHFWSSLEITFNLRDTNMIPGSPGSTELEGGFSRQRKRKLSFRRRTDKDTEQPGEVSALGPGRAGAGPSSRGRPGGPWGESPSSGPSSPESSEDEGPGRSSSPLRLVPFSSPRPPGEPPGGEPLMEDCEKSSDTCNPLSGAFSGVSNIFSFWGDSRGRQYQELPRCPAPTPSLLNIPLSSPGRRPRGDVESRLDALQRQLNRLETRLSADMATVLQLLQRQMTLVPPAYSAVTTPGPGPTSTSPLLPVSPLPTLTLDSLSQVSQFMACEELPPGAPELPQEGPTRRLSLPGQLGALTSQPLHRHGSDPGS

| Compound | hERG current change (%, negative = inhibition) at 1uM |
| --- | --- |
| CC(C)(C)n1ncc2c(=O)n(CC(=O)Nc3ccccc3)cnc21 | 21.6% |
| Cc1ccc(S(=O)(=O)CNC(=O)c2ccccc2)cc1 | 8.5% |
| COc1cc(/C=C2\SC(=O)N(CCNC(=O)c3sc4cc(F)ccc4c3Cl)C2=O)cc(OC)c1OC | 6.76% |
| O=C(COc1cccnc1[N+](=O)[O-])Nc1ccc2c(c1)CCC2 | 1.86% |
| O=C(Nc1cccc([N+](=O)[O-])c1)NC1CCS(=O)(=O)C1 (stereo not shown) | -4.19% |
| CCC(C)C(=O)Nc1ccc(S(=O)(=O)Nc2nccs2)cc1 (stereo not shown) | -1.93% |
| CCC(c1nc2ccccc2c(=O)n1-c1cccnc1)N1C(=O)c2ccccc2C1=O (stereo not shown) | 6.44% |
| Cc1nn(Cc2ccccc2)c(C)c1C(=O)OCC(=O)Nc1ccccc1SCC#N | -4.84% |
| Cc1ccc(C)c(NC(=O)CCC(=O)NN=C2CCCC2)c1 | 11% |
| O=C(Nc1nc2ccc(Cl)cc2s1)c1ccco1 | -4.56% |
| CCOc1ccc(N(C)Cc2cc(=O)oc3ccc(OCC)cc23)cc1 | 10.5% |
| O=C(COc1ccccc1Cl)NCCNC(=O)c1ccco1 | 8.48% |
| COc1ccccc1Nc1[nH+]c(C)cs1.[Br-] | 3.59% |
| Cc1ccc(S(=O)(=O)N(Cc2cc3ccc(C)cc3[nH]c2=O)c2ccccc2)cc1 | 3.29% |
| COc1ccccc1NS(=O)(=O)c1cccc(-n2c(O)c(C=Nc3ccccc3C(=O)O)c3ccccc3c2=O)c1 | 7.89% |
| COc1ccc(-c2cc(C(=O)Nc3cc(C)on3)no2)cc1OC | 8.44% |
| COc1ccc(C(=O)N2CCCC(CNC(=O)c3ccccc3Cl)C2)o1 (stereo not shown) | 13.1% |
| CC1CCCC(C)N1/N=C/c1ccc(N(C)C)cc1 (stereo not shown) | 11.2% |
| N#CC(C(N)=O)=C1CCC2(CC1)OCCCCO2 | 6.67% |
| Cc1ccc(C(=O)Nc2ncn[nH]2)cc1 | 13.2% |
| COc1cc(C)ccc1OCCOCCN(C)Cc1ccccc1.O=C(O)C(=O)O | -9.62% |
| Cc1nn(Cc2ccc(Cl)cc2)c(Cl)c1/C=N/NC(=O)CNc1ccccc1F | 13.7% |
| CC(=O)NC1CCCc2c1cnn2-c1ccc(C(C)(C)C)cc1 (stereo not shown) | 8.29% |
| CCOc1ccc(CN2CCNC(=O)C2CC(=O)NCCc2ccccn2)cc1 (stereo not shown) | 12.5% |
| Cl.NCCCCCc1nnc(SCc2ccccc2Cl)o1 | -9.02% |
